# The source gives no read counts; variants with many changes may rest on few reads.
# B1: OR4K15 (parent)
# chain: GUUAACGGUCAUAGGCCAUGGAAACUAGGAGCACCAUUUCGCUGCCAGUGAAGAAAUGAACAAAGAAAAUCUGGGCCAGGCAGGCAUCAAAAGAAAUAGUCUUGCGCUCAACCAGAAAGUCUGUAAUCAUUUUAAGGGUA
# Variants of: B1
# Assay: self-cleavage, relative activity (ratio to wild type); higher = more cleavage; in vitro, sequencing; the parent is a self-cleaving ribozyme
row,Variant,self-cleavage
1,A62G A78G U108C,0.02
2,A67G A86G A92G A118G,0.89
3,A64G A69G U122C,1.65
4,A60U A91G A140G,1.14
5,A64G A90G C109U,0.33
6,A60G U87C A118G,0.25
7,A68C U100C A114G,0.57
8,A60G A67U A118G,0.61
9,A63G A78U A95G,0.82
10,A64G A82C A125G,0.07
11,A60G U72C C85U A114G U122C,0.49
12,A63U A66U A86C A114U,0.1
13,A68G A69U A90G,0.34
14,A63U U124C A125G,0.92
15,A64G U108C U139C,0.01
16,A64G A78U A91G,0.07
17,A66U U72A A95G C107A A114U A117G,0.01
18,A63G U87C U103C,0.2
19,A67G A69G U70C,0.18
20,A60U U102C A118U,1.91
21,A66G C71U U122A U132C,0.39

row,Variant,self-cleavage
1,C61U U87A A96G U132C,2.08
2,A62G A86G U120C,0.37
3,A67G A69G U122C,0.67
4,A60G A78G U122A,0.24
5,A64G A67G U120C,1.48
6,A64G A67G U120A,0.66
7,A60G A62G U103A U130C,0.2
8,A60U U100C A111C A126G,0
9,A62G U72C A86C A110G A114U,0.01
10,A66C A82U U132C,0.21
11,A64G U122A U139C,0.25
12,A62G A78U U100A A129C U130C,0.03
13,A60G A62G A67G A78G A89G A111U,0.02
14,A64C A78U A94G U103C U122C,0.03
15,A66G C113U A118G,0.05
16,A62G U102C A114U A135G,0.11
17,A62U A117U A125G,0.5
18,A67G A92G A116G U133C,0.16
19,A60G G74U G80U A96G U100C U108A U120C,0
20,C61U A68G A78U U120C A126U,0.3
21,A67G U72C U132A,0.18

row,Variant,self-cleavage
1,A64G A89G A96G,1.44
2,A64G A67G U103A U122C,0.65
3,A62G A92G A129G,0.85
4,A64G U100C A114U U122C,0.23
5,A60G U100C C105A,0.03
6,A64G C85U A111G,0.03
7,A64G A95G A96U U133C,1.24
8,A63G A94G A129U,0.83
9,A64U U102C U131C,2.33
10,A60U U127C A129G,0.57
11,A60G U72C U87C A92U G115C,0.02
12,A63G A94G A114G U122C,0.06
13,A66C A92G A94G,1.62
14,A62G A68G A111G U122C,0.01
15,A60C A63G A135U,0.88
16,A62G A78U U127C U130C,0.03
17,A62G A64G A96G U103C,0.22
18,A60G A89G A116U A117G,0.25
19,A60U A66G U122A A129G,2.15
20,A66G A114G A117G U133A,0.3
21,A60G A92G A95G U108C A134U,0.01

row,Variant,self-cleavage
1,A64G A82U A95G U122C,0.17
2,A60G A62G A63U U100C,2.09
3,C61U U122C U124C,0.69
4,A62G U87C A95G U102A U103C A114U,0.01
5,A68G A78U A95G,1.33
6,A63G A66U A91G U97C,0.9
7,A64G U102C U122C,1.74
8,A64G A82U U132C,0.11
9,A64G A92G A95G U100C,2.23
10,A64G A96G A126G,1.12
11,A67C U100A A116G,0.91
12,A67U C76U U100C A111G U122A U124A,0.02
13,A60G A89U A114G U122C,0.39
14,A64G G74A U102C,0.31
15,A60G A69G A114G A126G,0.17
16,A66C G74A U122C,0.14
17,A60G A114U A118G,0.07
18,A60G U102C U103A,0.22
19,A64G U70C G73U U100C,0.16
20,A67G U103A U108C A110G,0
